ChEMBL document CHEMBL4888484, “Replenishing the malaria drug discovery pipeline: Screening and hit evaluation of the MMV Hit Generation Library 1 (HGL1) against asexual blood stage Plasmodium falciparum ,using a nano luciferase reporter read-out” (2022)
The campaign covered roughly 150,000 compounds. About 540 (0.36%) showed an effect of 50% or more. The list shows a part of the results.

system: Plasmodium falciparum; experiment: Primary screen in NF54 nanoGlo assay, in single point, at 2uM, 72h; a lower Z score goes with more inhibition; assay type: functional, Erythrocyte; conditions: timepoint 72 hour

Row | Structure (SMILES) | % Inhibition | Z score
1 | CC(CCCC(C)(C)O)NC1CCCC(C)(C)C1 (stereo not drawn) | -11% | 1.8
2 | C[C@H](NCCc1c[nH]c2ccccc12)c1ccncc1 | -1% | 0.12
3 | CCN(CC)c1ccc([C@@H]2CC(c3c(O)n(C)c(=O)n(C)c3=O)=NN2C(C)=O)cc1 | 3% | -0.6
4 | CO[C@H]1C[C@H]2CC[C@@H](C1)N2C/C=C/c1ccccc1 | -5% | 0.97
5 | CC(C)n1ncc(C(=O)N[C@H](C(=O)OCc2ccccc2)C(C)(C)C)c1Cl | -3% | 0.49
6 | O=C1OC[C@H]2CN(Cc3cccnc3)CCN12 | -3% | 0.46
7 | O=C(CN1CCCC1=O)NCC[C@H]1CCCOC1 | -1% | 0.2
8 | CC1CCC(NCCc2c[nH]c3ccccc23)CC1 (stereo not drawn) | -1% | 0.17
9 | CCc1cc(NC(=O)c2cn(C(C)C)nn2)ccc1C | 5% | -0.64
10 | CCN1CN(CC(=O)N[C@@H](C)Cc2ccccc2C)CC1=O | 0% | 0.01
11 | Cc1ccnc(N2CCC(CO)(Nc3ccccc3)CC2)n1 | -7% | 1.03
12 | COc1cccc(-c2cnc(-c3ccc(CNC(=O)c4ccc(S(=O)(=O)F)cc4)cc3)[nH]2)c1 | 1% | -0.17
13 | CCCc1n[nH]cc1C(=O)N1C[C@H](c2ccccc2)[C@@H]2[C@H]1C1CCN2CC1 | -6% | 0.94
14 | O=C1NCCCC1N1CCN2CCCCC2C1 (stereo not drawn) | 11% | -1.45
15 | Cc1nc(CN2CC3CC2(C(F)(F)F)C3)sc1C | -1% | 0.17
16 | O=C(c1ccccc1Cn1cccn1)N1C2CCC1C(CO)C2 (stereo not drawn) | -32% | 3.74
17 | COc1cc(C[C@H]2C(=O)NC(=O)N(Cc3ccccc3)C2=O)ccc1O | -9% | 1.33
18 | CC(C)N(C)C(=O)N1CCN2C[C@@H](F)C[C@H]2C1 | 28% | -3.14
19 | c1nc(N2C[C@@H]3NCCO[C@H]3C2)c2ccsc2n1 | -10% | 1.35
20 | CCC1CN(Cc2cncnc2)CC2(CCOC2)O1 (stereo not drawn) | 0% | -0.02
21 | O=C(Nc1cn[nH]c1)Oc1ccccc1 | 28% | -3.21
22 | O=C(CN1CCCC1=O)NCC1(N2CCOCC2)CCCCC1 | -6% | 1.15
23 | Cc1nn(C(C)(C)C)cc1C(=O)Nc1ccc2cn(C(C)C)nc2c1 | -4% | 0.44
24 | CCCn1c(=O)oc2cc(S(=O)(=O)N3CCC(CC(=O)Nc4cc(C)ccc4C)CC3)ccc21 | -20% | 1.83
